This note sets out measurements from the RNAGym collection of RNA variant scans (doi:10.7554/elife.90254).

The labels stand for the following.
B1: LINE1-mini (parent)
chain: GGCAGAGCUCAACACAGCGUGGCAAAGUGGCUGUGGCUAGACUGCC

Read counts are not given, so values of variants with three or more changes are uncertain.

The data set covers variants of B1. In words: self-cleavage, relative activity (ratio to wild type); higher = more cleavage; in vitro, sequencing; the parent is a self-cleaving ribozyme.
For the variant GGCAGAGCUCAUCACAGUGUGGCAAAGUAGCUGUGGCUAGACUGCC [A12U C18U G29A], the self-cleavage came to 0.76. The value for GGCAGAGCUCGACACAGGGUGGCAAAGUGGCUGUGGCUCGACUGCC [A11G C18G A39C] was 0.02; that for GGCAGAGCUGAACACAGCGUGGCAAAGUGGCUGUGAAUAGACUGCC [C10G G36A C37A] was 0. As for GGCAGAGCUCUACACAGCGUGGCAAAGCGUCUGUGGCUAGACUGCC [A11U U28C G30U], the figure is 0.15. As for GGCAGAGCUAAACACAGCGGGGAAAAGUGACUGUGGCUAGACUGCC [C10A U20G C23A G30A], the figure is 0.06; as for GGCAGAGCACAACACAGCGAAGCAAUGUGGCUGUGGCUGGACUCCC [U9A U20A G21A A26U A39G G44C], 0.02.

As for GGCAGAGCUCAACACAGCGUGGCAGAGUGACUGUGGAUAGACUGCC [A25G G30A C37A], the self-cleavage was 0.08.

For the variant GGCACAGCUAAACACGGCUUGGCAAAGUGGCUGUGGCUAGACAGCC [G5C C10A A16G G19U U43A], the self-cleavage was found to be 0.01. The value for GGCAGAGCUGAACACAGCGUGGCAAGGUGGCUGUAGCUAGACUGCC [C10G A26G G35A] was 0.01; that for GGCAGAGCUCAACAUAGCGUGGCAAAGCGGCUUUGGCUAGACUGCC [C15U U28C G33U] was 0.61. As for GGCAGAGCUCAACACUGCGUGUCAAAGUGGCUGUGUCUAGACUUCC [A16U G22U G36U G44U], the figure is 0.06. As for AGCAGAGCUCAAGAUAGCGUGGCAAAGUGGCUGUGGCUAGACUGCC [G1A C13G C15U], the figure is 0.08; as for GGCAGAGCUCAGCCCAGCGUGGCGAAGUGGCUGUGGCUAGACUGCC [A12G A14C A24G], 0.03.

Turning to GGCAGAGCUAAACAGAGCGUGGUAAAGUGGCUGUGGCUAGACUGCA [C10A C15G C23U C46A], the self-cleavage is 0.

As for GGCAGAGCUCAACACAGCGUGGCUAAGUGGCUGUGGCUAGACUGUA [A24U C45U C46A], the self-cleavage was determined as 0.66. As for GGAAGAGCUCAACACAGCAUGGCACAGUCGCUGAGGCUAGACUGCC [C3A G19A A25C G29C U34A], the figure is 0.12; as for GGGAGAGCUCAUCACAGCGUGGCAAAGUGGCUGUGGCUAGGCUGCC [C3G A12U A41G], 0.05. As for GGCCGAGCUCAACACAGCGUGAUAUAGUGUCUGUGGCUAGACUGCC [A4C G22A C23U A25U G30U], the figure is 0.25; as for GCCAGAGAUCAACACAGGGUGGCAAAGUAGCUGUGACUAGACUGCC [G2C C8A C18G G29A G36A], 0.07. The value for GGCGAAGCUCAACACAGCGUGGCAAAGUGGCUGUGGCUAGCCUGCC [A4G G5A A41C] was 0.07; that for GGCGGAGGUCAACCCUGCGUGGCAAAGUGGCAGUGGCUAGACUGCC [A4G C8G A14C A16U U32A] was 0.06; that for GGCAGAGCUCAAGACAGCCUGGUAAAGUGGUUGUGGCUAGACUGCC [C13G G19C C23U C31U] was 0.14. For the variant GGCAGAGCUCAACACAGCUCGGCAAAGUGGUUGUGGCUAGACUGCC [G19U U20C C31U], the self-cleavage was determined as 0.66. On to GGCACAGCUCAAUACAGCGUGGCAAAGUGGCUGUGCCUAGUCUGCC [G5C C13U G36C A41U], for which the self-cleavage was 0.03. As for GGCAUAGCUCAACACAGCGUGCCAAAGUGGCUGUGGCUAGAAUGCC [G5U G22C C42A], the figure is 0.53. The value for GGCAUAGCUCAACACAGCGUGGCAAAGUGGCUGUGGCCGGACUGCC [G5U U38C A39G] was 0.02; that for UGCAGAGCUCAACACAGCGUGGCAAAGUGGCUGGGGCUAGAUUGCC [G1U U34G C42U] was 0.01. The value for GGCAGUGCUCAACGCGGCGUGGCAAAGUGGCUGUGGCUAGACUGCC [A6U A14G A16G] was 0.14; that for GGGAGAGCUCAACAAAGCGUGGCAAAGUGGCGGUGGCUAGACUGCC [C3G C15A U32G] was 0.04; that for GGCAGAGCUCAACACAGCGUGUCAAAGUGGCUCUGGCUAGACUGCU [G22U G33C C46U] was 0.03. Take GGGGGAGUUCAACACAGCGUAGCAAAGUGGGUGUGGCUCUACUGCC [C3G A4G C8U G21A C31G A39C G40U]: the self-cleavage amounted to 0.05. As for AGCACAGCUCAACACAGCGCGGCAAAGUGGCUGUAGCUAGACUGCC [G1A G5C U20C G35A], the figure is 0.03; as for GGCAGAGCUCAACACAGCGUGGCAAAGUUGCUGUGGCUAUACUCCC [G29U G40U G44C], 0.1; as for GGCAUAGCUCAACACAGCGUGGCAAAGUGGCUGUGACUAGAAUGCC [G5U G36A C42A], 0.25.

Turning to GGCAAAGCUCAACACAGCGUGGCAAAGUUGCUGUGGCUAGACUGUC [G5A G29U C45U], the self-cleavage was 0.18. The value for GGCAGAGCUCGACACAGCGUGGCAAAGUGCCUGUGGCUAGACCGCC [A11G G30C U43C] was 0. For the variant GGCAAAGCUCAACACAGCGUGGCAAAGUGACUGUGGCUAGACUGCU [G5A G30A C46U], the self-cleavage was found to be 0.15. As for GGCAGAGCUCAACACAGAGUGGCAAUAUGGCAGUGGCUAGACUGUC [C18A A26U G27A U32A C45U], the figure is 0.03; as for GGCAGAGCUCAACACAGCGUGACAAAGUGGCUGUGGAUAGACUGCA [G22A C37A C46A], 0.02; as for GGCAGAGCUCAACACAGCGUGGCAAAGUGGCUGUGGCCCGACAGCC [U38C A39C U43A], 0.03.

In the case of GACAGAGAUCAACACAGCGUGGCAAAAUGGCUGUGGCUAGACUGCC [G2A C8A G27A], the self-cleavage was 0.08.

Consider GGCAUAGCUCAACACAGCGUGGCAAAGGGGCUGUGGCUAGACUGCU [G5U U28G C46U], for which the self-cleavage was 0.02. The value for GGAAGAGCUCUACACAGCUUGGCAAAGUGGCUGUUGCUAGACUGCC [C3A A11U G19U G35U] was 0.01; that for CGCAGCGCUCAACACAGGGUGGCAAAGUGGCUGUGGCUAGACUGCC [G1C A6C C18G] was 0.01; that for GUAAGACCUCAACACUGCGUGGCAAUGGGGCUGUGGCUAGACUGCC [G2U C3A G7C A16U A26U U28G] was 0.06. AGCAGAGCUCAACACAGCGUGGUAAAGUGGCUGUGGCUAGACCGCC [G1A C23U U43C]: the self-cleavage was found to be 0.12.

Turning to GGCAGAGAUCAACACAGCGUGGCAACGUGGCUGUGGCUAGACUGCU [C8A A26C C46U], the self-cleavage was 0.05.

Consider GGCAGAGCUCAACACAGCGUGUCGUAGUGGCUGUGGCUAGACUGCC [G22U A24G A25U], for which the self-cleavage was found to be 0.72. As for GGCAGAGCGGGACACAGCGUGGCAAAGUGGCUGUGGGUAGACUGCC [U9G C10G A11G C37G], the figure is 0. Consider GGUAGAGCUCAACACAAUUUGGCAAAGAGGCUGUGGCUAUACUGCC [C3U G17A C18U G19U U28A G40U], for which the self-cleavage turned out to be 0.01. The value for GGCAGAGGUCAACACAGCGUGGCAAAAUGGAUGAGGCUAGACUGCU [C8G G27A C31A U34A C46U] was 0.03. On to GGCAGAGCUGAACCCAGCGUGGAAUAGUAGCUGUGGCUAGACUGAC [C10G A14C C23A A25U G29A C45A], for which the self-cleavage was 0.01. The value for GGCAGAGCUCAACCCAGCGUCGCAAAGUGGGUGUGGCUAGACUGCC [A14C G21C C31G] was 0.01. For GGCAGAGCUCAACAAAGUGUCGCAAAGUGGCUGUGGCUAGACUGCC [C15A C18U G21C], the self-cleavage was determined as 0.04. The value for GGCAGAGCGCAACACAGAGUGGCAAAGUGGCUGUGGCUAGACCCCC [U9G C18A U43C G44C] was 0.02. The value for GGCAGAUCUCAACACAGCGUGGUAAAGUGGCUGUGGCUAGACUCCC [G7U C23U G44C] was 0.06.
